In PubChem BioAssay AID445 (National Center for Advancing Translational Sciences (NCATS), 2006):
Screen size: about 110,000 compounds; about 40 (0.04%) were called active. This list was built around the results that the source calls inconclusive (neither active nor inactive); the mix of calls is not that of the screen. Calls follow the shape of the dose curve; as a rule, active = well fitted curve in the direction sought with a large enough effect in the signal ratio (not every such curve was filed as active); inconclusive = small, poorly fitted or top-dose-only effect, or a change in a side signal; inactive = flat fitted curve, though single readings scatter; the % refers to the signal ratio. Potencies of inconclusive entries are doubtful fits and often do not repeat.
Potency is read from the fitted curve at half-maximal effect.

Experiment: IkB Signaling;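 as to IkBa stabilization activation: 0% = basal untreated cells and 100% = reference inhibitor full response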
Conditions: ABC-DLBCL IkBa-CBG/CBR dual luciferase ratio (green luciferase fused to IkBa over red control in OCI-Ly3 lymphoma cells), 4 h; IkBa stabilization activation: at 57.1 µM (top of the series), scaled: untreated 0%, proteasome inhibitor 100% unless noted
Outline: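 Curves were fitted separately to fusion (green), unfused (red) and ratio luminescence, then classed by r2, magnitude and activity. Cells: OCI-Ly3, 4 h compound plus doxycycline at 37C; 10 uM MG-132 defined full response.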
In the case of Cc1ccc(OCCCSc2nc(-c3ccc(C(C)(C)C)cc3)nc3cc(=O)[nH]n23)cc1C, the “IkBa stabilization activation” value is reported as inactive: 2.06%. In the case of CCCCSc1nnc2c(n1)OC(C)N(C(C)=O)c1ccccc1-2 (stereo not given), the IkBa stabilization activation is reported as inconclusive: 20.7% [signal inhibitor]. With COc1ccc(CCNC(=O)C2COc3ccccc3C2)cc1OC (stereo not given) the IkBa stabilization activation was inconclusive: 2.94% [signal inhibitor]. In the case of Cn1c(Oc2ccc(Cl)cc2)nc2c1c(=O)n(Cc1ccc(F)cc1)c(=O)n2C, the Potency is reported as inconclusive: 15.8 µM [signal inhibitor, partial curve]. For O=C(NCCc1ccccc1)c1ccc2c(c1)N(Cc1ccc(F)cc1)C(=O)c1ccccc1S2, the IkBa stabilization activation was inconclusive: 0.65% [signal inhibitor]. With COc1ccc(C(=O)NC(c2ccc(Cl)cc2)c2cc(Cl)c3cccnc3c2O)cc1 (stereo not given) the Potency was inconclusive: 31.6 µM [signal inhibitor]. With Cc1cc(C)cc(NC(=O)CCC(=O)N2CCSc3ccccc32)c1 the IkBa stabilization activation was inconclusive: 2.23% [signal inhibitor]. With O=C(CN1CCN(Cc2ccccc2Cl)C1=O)NC1CCCCCC1 the IkBa stabilization activation was inconclusive: -0.0773% [signal inhibitor]. With Cc1nn(-c2ccccc2)c(C)c1C(=O)OCC(=O)NC(=O)NC1CCCCC1 the IkBa stabilization activation was inconclusive: 15.5% [signal inhibitor]. In the case of CCn1c(COc2cccc(OC)c2)nnc1SCC(=O)Nc1ccccc1C(=O)OC, the “IkBa stabilization activation” value is reported as inactive: 8.66%. For COc1ccc(CC(=O)N2CCc3cc(OC)c(OC)cc3C2COc2ccc(F)cc2)cc1OC (stereo not given), the IkBa stabilization activation was inconclusive: 1.69% [signal inhibitor]. With O=C(NCc1ccccc1)c1ccc2oc(=O)n(Cc3ccccc3)c2c1 the IkBa stabilization activation was inconclusive: 2.73% [signal inhibitor]. For CN(C)c1ccc(NC(=O)CSC2=Nc3ccccc3C3=NC(CCC(=O)NCc4cccs4)C(=O)N23)cc1 (stereo not given), the IkBa stabilization activation was inconclusive: 2.01% [signal inhibitor]. With COc1ccc2c(c1)[n+]([O-])c(/C(C)=N/NC(N)=S)c(C)[n+]2[O-] the IkBa stabilization activation was inactive: 1.33% [at 11.4 µM, scaled: untreated 0%, proteasome inhibitor 100%]. With COc1cccc(C(=O)Nc2cccc(C(=O)OCc3cc(=O)n4c(C)csc4n3)c2)c1 the IkBa stabilization activation was inconclusive: 6.43% [signal inhibitor]. For Cc1c(C(=O)NC(C)c2ccccc2)sc2nc3n(c(=O)c12)CCCC3 (stereo not given), the IkBa stabilization activation was inconclusive: 2.05% [signal inhibitor]. For COCCNC(=O)c1ccc2c(c1)N=C(C)c1cc(C)ccc1S2, the IkBa stabilization activation was inconclusive: 13.7% [signal activator]. In the case of NS(=O)(=O)c1ccc2nc(NC(=O)COc3ccc(Cl)cc3Cl)sc2c1, the “IkBa stabilization activation” value is reported as inactive: 2.84%. In the case of Cc1c(S(=O)(=O)Nc2ccc3c(c2)OCCO3)c(=O)n(C)c(=O)n1C, the “IkBa stabilization activation” value is reported as inactive: 1.5%. In the case of Cc1nn2cc(-c3ccccc3)nc2s1, the IkBa stabilization activation is reported as inconclusive: 3.5% [signal inhibitor]. For COc1ccc2cc(C#N)c(NC(C)C)nc2c1, the “IkBa stabilization activation” value was inactive: -1.52%. For CCN(CC)CCCNC(=O)c1ccc2c(Cl)c3c(nc2c1)CCCC3, the IkBa stabilization activation was inconclusive: -0.404% [signal inhibitor]. With COCCCNC(=O)C1CCN(c2cc(C)nc3c(-c4ccc(Cl)cc4)c(C)nn23)CC1 the IkBa stabilization activation was inconclusive: -0.186% [signal inhibitor]. For CCCc1ccc(Oc2cn[nH]c2-c2ccc(O)cc2O)cc1, the IkBa stabilization activation was inconclusive: -3.62% [signal inhibitor]. For CCOC(=O)c1c(Oc2ccc(C(C)=O)cc2)nnc(-c2ccccc2)c1-c1ccccc1, the IkBa stabilization activation was inconclusive: 0.937% [signal inhibitor]. With CCc1nn2c(=O)cc(COC(=O)C(CC)c3ccccc3)nc2s1 (stereo not given) the IkBa stabilization activation was inconclusive: -1.39% [signal inhibitor]. With COc1cccc(-c2cc(C(F)(F)F)nc(NCc3ccco3)n2)c1 the Potency was inconclusive: 25.1 µM [signal inhibitor, partial curve]. For CN(C)c1ccc(N=Nc2cccc3ccoc23)cc1, the IkBa stabilization activation was inactive: 19% [at 11.4 µM, scaled: untreated 0%, proteasome inhibitor 100%]. With O=C(Nc1ccc2oc(-c3cccnc3)nc2c1)c1cccnc1 the “IkBa stabilization activation” value was inactive: 0.137%. In the case of CCOC(=O)c1c(-c2ccccc2)oc2ccc(N(C(C)=O)S(=O)(=O)c3ccc(C)cc3)cc12, the IkBa stabilization activation is reported as inconclusive: 4.46% [signal inhibitor]. In the case of O=S(=O)(Nc1nc2ccccc2nc1N1CCN(c2ccccn2)CC1)c1ccc(Cl)cc1, the Potency is reported as inconclusive: 0.158 µM [signal inhibitor, full curve]. For CCc1ccccc1NC(=O)Cn1cc2c(n1)CCC(C)C2 (stereo not given), the “IkBa stabilization activation” value was inactive: -1.19%. With CCC(=O)N1CCc2cc(Br)cc(S(=O)(=O)CCC(=O)NCCc3ccccc3)c21 the IkBa stabilization activation was inconclusive: -0.497% [signal inhibitor]. For CC[C@@H](c1ccc2cc(O)ccc2c1)C(C)(C)C(=O)O, the IkBa stabilization activation was inactive: 0.546% [at 11.4 µM, scaled: untreated 0%, proteasome inhibitor 100%]. For O=c1cc(-c2ccccc2)c2ccc3c(c2o1)CN(Cc1ccccc1)CO3, the IkBa stabilization activation was inconclusive: -1.79% [signal inhibitor]. With Cn1c(=O)c(-c2cc(F)cc(F)c2)nc2cnc(Nc3ccccc3)nc21 the IkBa stabilization activation was inactive: -7.4% [at 11.4 µM, scaled: untreated 0%, proteasome inhibitor 100%]. In the case of C=CCSc1nnc(NC(=O)CSc2nnc(C)s2)s1, the “IkBa stabilization activation” value is reported as inactive: 2.71%. With COc1ccc(NC(=O)N2CCCC(c3nc(-c4ccc(C(C)C)cc4)no3)C2)cc1 (stereo not given) the IkBa stabilization activation was inconclusive: 2.12% [signal inhibitor]. With CCOC(=O)N1CCN(C(=O)CCn2nc(-c3ccccc3)ccc2=O)CC1 the “IkBa stabilization activation” value was inactive: 0.0886%. In the case of COc1ccc(-n2nc(C(=O)NCC(=O)NCc3ccco3)c3ccccc3c2=O)cc1Cl, the IkBa stabilization activation is reported as inconclusive: 5.74% [signal inhibitor]. For Cc1nn(-c2ccc(N3CCCCC3)nn2)c(C)c1CCC(=O)NCc1ccc(Cl)cc1, the IkBa stabilization activation was inconclusive: 9.24% [signal inhibitor]. With CCc1c(C)nc(SCCOc2ccc(OC(C)C)cc2)[nH]c1=O the “IkBa stabilization activation” value was inactive: 0.118%. For CCN(C(=O)c1cc2c(=O)oc3ccc(C)cc3c2s1)c1ccccc1F, the “IkBa stabilization activation” value was inactive: 0.21%. For Cn1c(=O)oc2cc(S(=O)(=O)N3CCC(C(=O)N4CCN(c5ccc(Cl)cc5)CC4)CC3)ccc21, the IkBa stabilization activation was inconclusive: 1.36% [signal inhibitor]. In the case of O=C(Nc1ccc(F)cc1)N1CCN(C/C=C/c2ccccc2)CC1, the IkBa stabilization activation is reported as inconclusive: 1.3% [signal inhibitor]. In the case of CCOC(=O)c1cc(C)n(CC2CCC(C(=O)Nc3ccc(C(=O)OC)cc3)CC2)c1C (stereo not given), the IkBa stabilization activation is reported as inconclusive: -2.12% [signal inhibitor]. In the case of CCOc1ccc(-c2oc3cc(Cl)ccc3c(=O)c2O)cc1OC, the “IkBa stabilization activation” value is reported as inactive: -4.94%. With CC(C)(C)NC(=O)C(c1ccccc1)N(C(=O)c1csnn1)C1CC1 (stereo not given) the “IkBa stabilization activation” value was inactive: 0.587%. In the case of Cc1ccccc1CNC(=O)Nc1ccc2c(c1)N(C)C(=O)c1ccccc1S2, the “IkBa stabilization activation” value is reported as inactive: 1.07%. For COc1ccc(-c2ccc(CCC(=O)O)n2-c2ccc(Cl)cc2C)cc1, the IkBa stabilization activation was inconclusive: 6.39% [signal inhibitor]. With CCN(C(=O)CSc1nc2ccccc2n1CC(=O)Nc1ccc(F)cc1F)c1ccccc1 the IkBa stabilization activation was inconclusive: 0.794% [signal inhibitor]. In the case of CCN(C(=O)CSc1nc2n[nH]c(C)c2c(=N)n1-c1cccc(OC)c1)c1cccc(C)c1, the IkBa stabilization activation is reported as inconclusive: -0.558% [signal inhibitor]. With CCc1nnc(NC(=O)OCc2ccccc2)s1 the Potency was inconclusive: 15.8 µM [signal inhibitor, partial curve]. For Cc1cc(/C=N/n2cnnc2)c(C)n1-c1cc(Cl)ccc1Cl, the “IkBa stabilization activation” value was inactive: 3.68%. With COc1ccc(C2Oc3nc(SC)nnc3-c3ccccc3N2C(C)=O)cc1 (stereo not given) the IkBa stabilization activation was inconclusive: 0.222% [signal inhibitor]. With CC(=O)N1CCc2cc(NC(=O)c3ccc(C)cc3)ccc21 the “IkBa stabilization activation” value was inactive: -2.27%. In the case of COc1ccc(NC(=O)C2CCN(c3cnccn3)CC2)cc1Cl, the IkBa stabilization activation is reported as inconclusive: 0.169% [signal inhibitor]. With CC(=NCc1ccco1)c1c(C)[nH]n(-c2nc3ccccc3s2)c1=O the Potency was inconclusive: 1 µM [signal inhibitor, partial curve]. For Cc1cc(NC(=O)C2CCCCC2C(=O)O)no1 (stereo not given), the “IkBa stabilization activation” value was inactive: 0.564%. In the case of CCN1CCN(C(=O)Cn2ncc3ccsc3c2=O)CC1, the “IkBa stabilization activation” value is reported as inactive: -1.99%. With Cn1c(NCc2c[nH]c3ccccc23)nc2ccccc21 the “IkBa stabilization activation” value was inactive: -0.273%. In the case of Cc1ccc(C)c2[nH]c(=O)c(CCNC(=O)c3ccc(S(=O)(=O)N(C)C)cc3)cc12, the “IkBa stabilization activation” value is reported as inactive: 2.15%. For O=C(Nc1ccc2c(c1)OCCO2)C1CCN(S(=O)(=O)c2cccs2)CC1, the “IkBa stabilization activation” value was inactive: -0.112%. For Cc1cccc(NC(=O)COc2cccc3c(=O)n(C)ccc23)c1C, the IkBa stabilization activation was inconclusive: 4.47% [signal inhibitor]. For COc1cccc2cc(-c3nnc(SCC(=O)Nc4cc(C(F)(F)F)ccc4Cl)n3N)oc12, the “IkBa stabilization activation” value was inactive: 4.74%. In the case of CCOC(=O)c1cc(-c2ccccc2)n(-c2cccc(C(=O)Nc3cccc(C(C)=O)c3)c2)c1C, the IkBa stabilization activation is reported as inconclusive: 0.881% [signal inhibitor]. With COc1cccc(N2CCN(C(=O)CN3C(=O)COc4ccc(S(=O)(=O)N5CCC(C)CC5)cc43)CC2)c1 the IkBa stabilization activation was inconclusive: 5.42% [signal inhibitor]. With Cc1oc2c(c(C)cc3oc(=O)c(CC(=O)NCc4ccccc4)c(C)c32)c1C the IkBa stabilization activation was inconclusive: 2.18% [signal inhibitor]. With CCN(CC)S(=O)(=O)c1cccc(C(=O)Nc2nc3cc4c(cc3s2)OCCO4)c1 the IkBa stabilization activation was inconclusive: -2.83% [signal inhibitor]. For COc1cccc(-c2nccc(NCCc3c[nH]c4ccc(OC)cc34)n2)c1, the IkBa stabilization activation was inconclusive: 6.05% [signal inhibitor] [at 11.4 µM, scaled: untreated 0%, proteasome inhibitor 100%].
